# In the supplement of paper PMC4604168 (melanoma cell lines):
# Some of the results follow. Repeats are few or missing, and single values can be far off.
# Legend:
# Assay in all cases: cell count relative to DMSO control; melanoma cells; higher = more viable cells
# Conditions in all cases: library dose: low library concentration; 72 h
# [1] = test system: MZ2-MEL
# [2] = test system: MeWo
# [3] = test system: RPMI7951
# [4] = test system: RVH-421
# [5] = test system: SkMel28
# [6] = test system: SkMel30
# [7] = test system: SkMel5
# [8] = test system: UACC257
# [9] = test system: UACC62
# 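Also: cell number obtained by counting DAPI-stained nuclei in high-throughput microscope images with image analysis software, screen run in 1,536-well plates.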
SMILES,cell count [1] [%],cell count [2] [%],cell count [3] [%],cell count [4] [%],cell count [5] [%],cell count [6] [%],cell count [7] [%],cell count [8] [%],cell count [9] [%]
"CO[C@H]1C[C@@H]2CC[C@@H](C)[C@@](O)(O2)C(=O)C(=O)N2CCCC[C@H]2C(=O)O[C@H]([C@H](C)C[C@@H]2CC[C@@H](OCCO)[C@H](OC)C2)CC(=O)[C@H](C)/C=C(\C)[C@@H](O)[C@@H](OC)C(=O)[C@H](C)C[C@H](C)/C=C/C=C/C=C/1C [everolimus] + CC(C)(C)c1cnc(CSc2cnc(NC(=O)C3CCNCC3)s2)o1 [SNS-032] (first compound 0.02 µM, partner dose 0.01 µM)",79.7,67.8,78,80.3,66.5,62.2,95.9,56.8,67.8
"CO[C@H]1C[C@@H]2CC[C@@H](C)[C@@](O)(O2)C(=O)C(=O)N2CCCC[C@H]2C(=O)O[C@H]([C@H](C)C[C@@H]2CC[C@@H](OCCO)[C@H](OC)C2)CC(=O)[C@H](C)/C=C(\C)[C@@H](O)[C@@H](OC)C(=O)[C@H](C)C[C@H](C)/C=C/C=C/C=C/1C [everolimus] + O=C(O)C(=O)Nc1sc2c(c1C(=O)O)CCNC2 [TCS401] (first compound 0.02 µM, partner dose 1.66667 µM)",85.7,82.2,79.7,89.1,62.8,74.9,94.6,65.5,59.6
"CO[C@H]1C[C@@H]2CC[C@@H](C)[C@@](O)(O2)C(=O)C(=O)N2CCCC[C@H]2C(=O)O[C@H]([C@H](C)C[C@@H]2CC[C@@H](OCCO)[C@H](OC)C2)CC(=O)[C@H](C)/C=C(\C)[C@@H](O)[C@@H](OC)C(=O)[C@H](C)C[C@H](C)/C=C/C=C/C=C/1C [everolimus] + Cn1c(Nc2ccc(C(F)(F)F)cc2)nc2cc(Oc3ccnc(-c4ncc(C(F)(F)F)[nH]4)c3)ccc21 [CHIR265] (first compound 0.02 µM, partner dose 0.08 µM)",50.9,60.2,58.1,69.7,36.9,40.8,,,45.4
"CO[C@H]1C[C@@H]2CC[C@@H](C)[C@@](O)(O2)C(=O)C(=O)N2CCCC[C@H]2C(=O)O[C@H]([C@H](C)C[C@@H]2CC[C@@H](OCCO)[C@H](OC)C2)CC(=O)[C@H](C)/C=C(\C)[C@@H](O)[C@@H](OC)C(=O)[C@H](C)C[C@H](C)/C=C/C=C/C=C/1C [everolimus] + COc1cc(Nc2ncc(F)c(Nc3ccc4c(n3)NC(=O)C(C)(C)O4)n2)cc(OC)c1OC [Tamatinib] (first compound 0.02 µM, partner dose 0.4 µM)",61.1,71.1,75.3,85.3,52.6,67.4,105,54.8,76.8
"CO[C@H]1C[C@@H]2CC[C@@H](C)[C@@](O)(O2)C(=O)C(=O)N2CCCC[C@H]2C(=O)O[C@H]([C@H](C)C[C@@H]2CC[C@@H](OCCO)[C@H](OC)C2)CC(=O)[C@H](C)/C=C(\C)[C@@H](O)[C@@H](OC)C(=O)[C@H](C)C[C@H](C)/C=C/C=C/C=C/1C [everolimus] + Cn1cncc1[C@@](N)(c1ccc(Cl)cc1)c1ccc2c(c1)c(-c1cccc(Cl)c1)cc(=O)n2C [tipifarnib] (first compound 0.02 µM, partner dose 0.01 µM)",69.9,68.7,79.6,69.1,62.4,62,111,60.2,58.3
"CO[C@H]1C[C@@H]2CC[C@@H](C)[C@@](O)(O2)C(=O)C(=O)N2CCCC[C@H]2C(=O)O[C@H]([C@H](C)C[C@@H]2CC[C@@H](OCCO)[C@H](OC)C2)CC(=O)[C@H](C)/C=C(\C)[C@@H](O)[C@@H](OC)C(=O)[C@H](C)C[C@H](C)/C=C/C=C/C=C/1C [everolimus] + O=C1NC(=O)/C(=C/c2ccc(-c3ccc(F)cc3O)o2)S1 [AS252424] (first compound 0.02 µM, partner dose 1 µM)",78.6,63.8,67.6,90,56.4,59,116,56.1,65
"CO[C@H]1C[C@@H]2CC[C@@H](C)[C@@](O)(O2)C(=O)C(=O)N2CCCC[C@H]2C(=O)O[C@H]([C@H](C)C[C@@H]2CC[C@@H](OCCO)[C@H](OC)C2)CC(=O)[C@H](C)/C=C(\C)[C@@H](O)[C@@H](OC)C(=O)[C@H](C)C[C@H](C)/C=C/C=C/C=C/1C [everolimus] + CO[C@@H]1[C@H](N(C)C(=O)c2ccccc2)C[C@H]2O[C@]1(C)n1c3ccccc3c3c4c(c5c6ccccc6n2c5c31)C(=O)NC4 [Midostaurin] (first compound 0.02 µM, partner dose 0.08 µM)",68.6,63.9,70.7,84.9,48.1,65.6,93.1,58.3,74.2
"CO[C@H]1C[C@@H]2CC[C@@H](C)[C@@](O)(O2)C(=O)C(=O)N2CCCC[C@H]2C(=O)O[C@H]([C@H](C)C[C@@H]2CC[C@@H](OCCO)[C@H](OC)C2)CC(=O)[C@H](C)/C=C(\C)[C@@H](O)[C@@H](OC)C(=O)[C@H](C)C[C@H](C)/C=C/C=C/C=C/1C [everolimus] + COc1cc2ncnc(Nc3ccc(Oc4ccccc4)cc3)c2cc1OC [SrcI1] (first compound 0.02 µM, partner dose 2 µM)",87.5,76,85.3,89.8,63.7,71.1,121,70.2,75.1
"CO[C@H]1C[C@@H]2CC[C@@H](C)[C@@](O)(O2)C(=O)C(=O)N2CCCC[C@H]2C(=O)O[C@H]([C@H](C)C[C@@H]2CC[C@@H](OCCO)[C@H](OC)C2)CC(=O)[C@H](C)/C=C(\C)[C@@H](O)[C@@H](OC)C(=O)[C@H](C)C[C@H](C)/C=C/C=C/C=C/1C [everolimus] + CCCCCCCCCCCC1=C(O)C(=O)C=C(O)C1=O [Embelin] (first compound 0.02 µM, partner dose 1.2 µM)",87.4,84.7,84.6,79.9,54.4,58.5,120,75.2,61.9
